{"source": "ChEMBL document CHEMBL4888484", "about": "“Replenishing the malaria drug discovery pipeline: Screening and hit evaluation of the MMV Hit Generation Library 1 (HGL1) against asexual blood stage Plasmodium falciparum ,using a nano luciferase reporter read-out” (2022)", "note": "Out of some 150,000 compounds screened, about 540 (0.36%) showed an effect of 50% or more. The list shows a part of the results."}
{"tested_on": "Plasmodium falciparum", "test": "Primary screen in NF54 nanoGlo assay, in single point, at 2uM, 72h; a lower Z score goes with more inhibition", "type": "functional, Erythrocyte", "conditions": "timepoint 72 hour", "units": {"% Inhibition": "%"}}
{"smiles": "Cc1cc(-c2noc(Cc3ccccc3)n2)c2ccccc2n1", "% Inhibition": 31, "Z score": -3.56}
{"smiles": "COc1ccc(C(=O)N2CCc3ccccc3C2)cc1S(=O)(=O)N1CC(C)CC(C)C1", "note": "(stereo unspecified)", "% Inhibition": -11, "Z score": 1.4}
{"smiles": "CCCc1c(C(=O)N2CCN(C)CC2)c(=O)cc(C)n1Cc1ccc2c(c1)OCO2", "% Inhibition": 7, "Z score": -0.89}
{"smiles": "O=C1CNC(C(=O)N2CCC[C@H]2c2ccncc2)=NN1c1ccccc1", "% Inhibition": 3, "Z score": -0.62}
{"smiles": "COc1ccc(N2CCN(Cc3cccn3-c3nnc(N4CCN(c5ccccc5)CC4)s3)CC2)cc1", "% Inhibition": -10, "Z score": 1.71}
{"smiles": "Cc1cc(C(=O)Nc2ccc(-n3nnn(CC(=O)N4CCOCC4)c3=O)cc2)no1", "% Inhibition": -6, "Z score": 1.16}
{"smiles": "C[C@H]1CCc2ccccc2N1Cc1nc(C2CC2)no1", "% Inhibition": -15, "Z score": 1.54}
{"smiles": "Cc1cccc(NC[C@H]2CCCN2Cc2nnc(-c3ccccc3)o2)n1", "% Inhibition": -13, "Z score": 1.95}
{"smiles": "Cc1nscc1C(=O)N(c1ccc(C#N)cc1)C1CC1", "% Inhibition": -10, "Z score": 1.01}
{"smiles": "COc1ccc([C@@]2(C)NC(=O)N(CC(=O)Nc3cc(C(F)(F)F)ccc3N3CCOCC3)C2=O)cc1OC", "% Inhibition": 0, "Z score": 0.03}
{"smiles": "COc1cccc2sc(OC3CN(C(=O)c4ccc5c(c4)OCO5)C3)nc12", "% Inhibition": -9, "Z score": 0.97}
{"smiles": "CC(C)CN(CC(=O)N1CC(=O)N(c2ccc(F)cc2)C1)C(=O)c1ccc(Cl)c(Cl)c1", "% Inhibition": 4, "Z score": -0.37}
{"smiles": "O=C(NC1CCC1)c1cccc(S(=O)(=O)N2CCCN3CCC[C@H]3C2)c1", "% Inhibition": 1, "Z score": -0.19}
{"smiles": "CC(C)(C)n1ncc2c1NC(=O)C[C@]21C(=O)Nc2cc(F)ccc21", "% Inhibition": 4, "Z score": -0.56}
{"smiles": "CCOC(=O)Cc1sc(N)nc1C", "% Inhibition": -13, "Z score": 1.69}
{"smiles": "O=C(COc1ccccc1)N1CCOC12CCCCC2", "% Inhibition": 1, "Z score": -0.08}
{"smiles": "O=C(NC[C@H]1CC(=O)N(C2CC2)C1)c1cc(C2CC2)[nH]c(=O)c1", "% Inhibition": 2, "Z score": -0.27}
{"smiles": "c1ccc(CNC2=Nc3ccccc3CCC2)cc1", "% Inhibition": 2, "Z score": -0.19}
{"smiles": "c1ccc(C[C@H](NCCn2cncn2)C2CCCCC2)cc1", "% Inhibition": -6, "Z score": 0.6}
{"smiles": "CC(C)c1ccccc1OC[C@@H](O)CNCCCn1ccnc1", "% Inhibition": 19, "Z score": -2.6}
{"smiles": "O=C(N[C@H]1COc2ccccc2C1=O)C1CCC(F)(F)CC1", "% Inhibition": -19, "Z score": 1.78}
{"smiles": "CC(C)c1nc(C#N)c(C#N)nc1-c1ccc2c(c1)OCCOCCOCCOCCO2", "% Inhibition": 0, "Z score": 0.02}
{"smiles": "O=C(c1ccc(Cl)cc1)N1CCCOC1", "% Inhibition": -6, "Z score": 0.66}
